According to patent publication US20100093623A1, “COMPOSITIONS AND METHODS FOR […]-LIKE RECEPTOR ACTIVITY AND USES THEREOF” (Burnham Institute for Medical Research, priority 2008, published 2010):

Target: T1, NLRP1 (Homo sapiens, UniProt Q9C000)
T1 sequence (Q9C000 1-1473): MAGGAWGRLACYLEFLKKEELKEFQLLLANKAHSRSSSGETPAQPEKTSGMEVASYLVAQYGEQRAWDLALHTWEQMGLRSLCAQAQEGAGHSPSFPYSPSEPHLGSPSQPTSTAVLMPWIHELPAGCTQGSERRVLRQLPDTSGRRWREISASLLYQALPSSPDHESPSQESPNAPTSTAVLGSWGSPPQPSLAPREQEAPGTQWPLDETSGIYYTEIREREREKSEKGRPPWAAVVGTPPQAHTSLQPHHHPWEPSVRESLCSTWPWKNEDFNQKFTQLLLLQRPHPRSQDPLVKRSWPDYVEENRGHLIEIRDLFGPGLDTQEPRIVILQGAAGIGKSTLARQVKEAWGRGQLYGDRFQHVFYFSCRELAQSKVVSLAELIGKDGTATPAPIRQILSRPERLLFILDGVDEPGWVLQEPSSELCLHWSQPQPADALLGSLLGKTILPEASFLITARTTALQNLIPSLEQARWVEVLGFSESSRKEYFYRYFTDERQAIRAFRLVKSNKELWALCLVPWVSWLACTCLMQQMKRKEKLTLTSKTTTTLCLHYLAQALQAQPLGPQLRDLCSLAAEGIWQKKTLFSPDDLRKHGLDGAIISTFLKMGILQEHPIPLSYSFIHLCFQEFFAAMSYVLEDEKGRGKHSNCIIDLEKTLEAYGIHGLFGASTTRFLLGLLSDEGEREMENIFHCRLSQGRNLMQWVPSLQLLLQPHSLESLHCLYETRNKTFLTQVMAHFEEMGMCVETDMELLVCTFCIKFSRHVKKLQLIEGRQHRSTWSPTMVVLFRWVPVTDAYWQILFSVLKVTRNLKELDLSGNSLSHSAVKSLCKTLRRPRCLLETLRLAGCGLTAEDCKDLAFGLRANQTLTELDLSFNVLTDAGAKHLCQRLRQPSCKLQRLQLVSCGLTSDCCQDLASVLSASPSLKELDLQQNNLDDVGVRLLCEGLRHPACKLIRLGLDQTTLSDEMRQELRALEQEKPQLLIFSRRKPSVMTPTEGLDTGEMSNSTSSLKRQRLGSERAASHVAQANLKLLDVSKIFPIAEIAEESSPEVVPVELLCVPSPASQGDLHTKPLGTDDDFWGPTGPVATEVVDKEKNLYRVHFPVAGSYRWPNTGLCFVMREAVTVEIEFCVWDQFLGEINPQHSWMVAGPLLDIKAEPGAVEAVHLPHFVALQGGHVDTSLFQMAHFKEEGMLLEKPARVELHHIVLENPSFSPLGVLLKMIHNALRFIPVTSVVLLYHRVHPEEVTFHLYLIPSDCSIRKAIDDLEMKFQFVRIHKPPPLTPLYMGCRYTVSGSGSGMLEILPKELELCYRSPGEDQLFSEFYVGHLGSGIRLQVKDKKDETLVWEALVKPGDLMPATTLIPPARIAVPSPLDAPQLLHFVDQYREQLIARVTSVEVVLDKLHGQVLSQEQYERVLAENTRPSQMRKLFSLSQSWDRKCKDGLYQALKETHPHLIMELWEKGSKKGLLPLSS
Test: FITC-ATP binding to NLRP1 by fluorescence polarization assay (FPA)
Conditions: various amounts of protein; NLRP1 0.1 μM

| Substance | concentration-dependence of suppression of FITC-ATP binding to NLRP1 |
| --- | --- |
| Bcl-2: anti-apoptotic protein; recombinant GST-fusion lacking C-terminal transmembrane domain (SEQ ID NO:3/4) | concentration-dependent and saturable |
| Bcl-XL: anti-apoptotic protein; recombinant GST-fusion lacking C-terminal transmembrane domain | concentration-dependent and saturable |
